Measured values: paper PMC6919601, “Identification of Plasmodium dipeptidyl aminopeptidase allosteric inhibitors by high throughput screening” (PLoS ONE, 2019)
Out of some 110,000 compounds screened, about 230 (0.21%) showed an effect of 50% or more. The list shows a part of the results.

target: DPAP1 (Plasmodium falciparum, UniProt Q8IIJ9); assay: primary screen, percent inhibition; read by cleavage of a fluorogenic dipeptide substrate; higher = more effect of the substance; parameters: species or system P. falciparum D10 trophozoite lysates; single well
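Note: 30 min substrate incubation versus DMSO and 10 µM JCP410 controls.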

DPAP1, sequence (Q8IIJ9 whole entry, looked up): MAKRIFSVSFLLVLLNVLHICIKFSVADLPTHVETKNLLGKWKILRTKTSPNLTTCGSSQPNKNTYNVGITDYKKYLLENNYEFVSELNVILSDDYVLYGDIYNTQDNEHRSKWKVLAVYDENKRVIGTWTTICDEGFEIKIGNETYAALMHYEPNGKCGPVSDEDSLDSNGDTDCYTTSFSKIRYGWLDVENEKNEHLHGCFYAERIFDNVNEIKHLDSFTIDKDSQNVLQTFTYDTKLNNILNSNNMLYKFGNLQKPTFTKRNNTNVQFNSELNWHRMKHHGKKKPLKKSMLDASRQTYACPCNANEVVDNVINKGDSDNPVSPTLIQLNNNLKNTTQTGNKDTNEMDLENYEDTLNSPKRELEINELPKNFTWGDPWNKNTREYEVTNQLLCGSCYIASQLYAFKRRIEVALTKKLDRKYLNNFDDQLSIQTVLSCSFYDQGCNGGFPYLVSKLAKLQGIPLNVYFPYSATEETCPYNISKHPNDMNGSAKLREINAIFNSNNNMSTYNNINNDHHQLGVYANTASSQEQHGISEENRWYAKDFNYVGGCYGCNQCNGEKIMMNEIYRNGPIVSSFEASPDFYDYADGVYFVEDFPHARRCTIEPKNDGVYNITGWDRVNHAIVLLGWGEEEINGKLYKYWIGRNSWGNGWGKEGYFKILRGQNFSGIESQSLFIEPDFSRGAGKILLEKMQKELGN

Compound	% Inhibition @ 10 uM [%]
O=C(O)CCCC(=O)Nc1cccc2cccnc12	-6.71
COc1ccc(CNCc2c(C(=O)O)c(C)n(Cc3ccc(C)cc3)c2C)cc1	-1.92
CC(C)CCn1c(Sc2nc3ccccc3[nH]2)nc2c1c(=O)[nH]c(=O)n2C	6.29
OC1CCN(Cc2cccs2)CC1	1.63
CCOc1ccccc1C1C=C(c2cccs2)Nc2ncnn21 (centres unmarked)	3.32
O=C(O)c1cccc(-n2nnnc2SCc2ccccn2)c1	-0.0735
OC1(c2ccc(Cl)cc2)CCN(Cc2cccc(F)c2)CC1	0.273
CN(CN1C(=O)C(=O)c2ccccc21)c1ccccc1	5.31
CCCOc1ccccc1C1CC(=O)Nc2c1ccc1ccccc21 (centres unmarked)	-0.297
O=C(CN1C(=O)c2ccccc2C1=O)Nc1ccc(Br)cc1C(=O)O	-4.21
Cc1cc(N2CCOCC2)ccc1/C=C1/SC(=O)N(C)C1=O	1.59
CCCOc1ccc(CNC(=O)C(C)n2sc3ccccc3c2=O)cc1 (centres unmarked)	-2.13
Cc1ccc(N(CC(=O)NCc2ccco2)S(=O)(=O)c2ccc(C)cc2)cc1	1.61
O=C(NCc1cccnc1)C1CC(c2ccccc2F)=NO1 (centres unmarked)	-5.79
CCOC(=O)N1CCC(NC(=O)C2CCCN(S(C)(=O)=O)C2)CC1 (centres unmarked)	2.18
COc1cc(OC)c(CN2CCc3ccccc3C2)cc1Br	-1.92
COc1ccccc1CNc1nc(-c2ccc(C)cc2)nc2ccccc12	2.06
Nc1onc(-c2ccccc2)c1-c1ccccc1	4.32
CCOc1ccc2nc(N3CCC(C(=O)N4CCCC4)CC3)sc2c1	4.95
CCCc1[nH]nc2c1C(c1cccs1)C(C#N)=C(N)O2 (centres unmarked)	2.36
Cn1cc(NC(=O)NCCN(Cc2ccco2)C2CCCC2)c2ccccc2c1=O	1.81
O=C(Cn1c(=O)c2cccn2c2cccnc21)NCCCN1CCOCC1	-8.52
Cn1c2ccccc2c2nnc(SCC(=O)Nc3nc4ccccc4s3)nc21	0.611
CCCSc1nc(O)cc(=O)n1-c1ccccc1	-3.8
O=C(CN(c1ccc(F)cc1)S(=O)(=O)c1ccccc1)Nc1ccc2ccccc2c1	1.35
COc1cc(OC)c(OC)cc1/C=C1\N=C(c2cc(Br)ccc2OC)OC1=O	3.74

Compound	% Inhibition @ 10 uM [%]
CSc1nn(Cc2ccccc2)c(N)c1S(=O)(=O)c1ccccc1	-3.85
COC(=O)c1cc2nc(-c3cccs3)cc(C(F)(F)F)n2n1	-4.15
COc1ccc(/C=C/c2cc(C(N)=O)c3ccccc3n2)cc1	-2.36
CCOC(=O)c1sc2ccccc2c1S(=O)(=O)N1CCCCC1	-5.52
O=C(NCCC1=CCCCC1)/C(=C/c1ccco1)NC(=O)c1ccccc1	-4.65
CC1(c2ccccc2)CC(C)(C)N(C(=O)CN2CCOCC2)c2ccccc21 (centres unmarked)	-2.97
Cc1c(C)c2cc(Cl)c3c(c2oc1=O)CN(Cc1ccc2c(c1)OCO2)CO3	2.54
COc1ccccc1C/N=C/c1c(O)[nH]c2ccccc12	6.28
Cc1ccccc1-c1nc(CS(=O)CC(=O)NCc2ccccn2)c(C)o1 (centres unmarked)	0.689
CCN(CCN(C)C)Cc1c(F)cccc1F	-3.5
CC(C)(C)NC(=O)Cn1c(-c2nonc2N)nc2ccccc21	-0.305
CCN1CCN(C(c2cccs2)C(C)NC(=O)c2c(F)cccc2F)CC1 (centres unmarked)	-1.08
Cc1ccc(Cc2nc(O)c3nnn(Cn4nnc(-c5ccc(Cl)cc5)n4)c3n2)cc1	3.51
O=C(CN1CCN(c2ccccc2F)CC1)Nc1nc(-c2ccccc2)cs1	-2.98
O=c1c(Nc2ccccc2)nsnc1Nc1ccccc1	-1.63
O=C1Nc2ccc(Br)c3cccc1c23	11.3
COc1ccc(C)cc1N(CC(=O)Nc1ccc(C)cc1C)S(C)(=O)=O	-1.71
O=C(CC(C(=O)O)c1ccccc1)Nc1ccccc1Cl (centres unmarked)	2.48
CC1=C(c2ccc(C(C)C)cc2)S(=O)(=O)N=C1NC1CCCc2ccccc21 (centres unmarked)	2.27
CCC(C)NC(=O)CSCc1nc(-c2cccc(C)c2)oc1C (centres unmarked)	-4.71
Fc1ccccc1CN1CCN(c2ccccc2)CC1	-2.81
CCOc1ccccc1C(=O)Nc1cccc2cccnc12	7.09
O=C(Cn1c(C(F)(F)F)nc2ccccc21)c1ccccc1	-2.32
CC(=O)CCN(Cc1ccccc1)Cc1ccccc1	-6.06
N#Cc1c(N/C=C/C(=O)c2ccco2)sc2c1CCCC2	2.38
Cc1cccc2sc(NC(=O)c3ccco3)nc12	-2.19

Compound	% Inhibition @ 10 uM [%]
CN1CCC(NCCc2ccc(Cl)cc2Cl)CC1	-2.95
Cc1ccc(C(=O)n2nc(-c3ccc(Cl)cc3)nc2NCc2ccco2)cc1	-2.91
Cc1cc(C)c2c(n1)SCC(=O)N2CCCC(=O)NC1CCCCCC1	-6.01
Fc1ccccc1/C=C/c1nc(-c2cccs2)no1	2.57
CCOc1ccc(C2CC(=O)N=C(NC(=O)c3ccc(OC(F)F)cc3)N2)cc1 (centres unmarked)	1.13
O=C1NC(=O)/C(=C/c2cccc(Oc3ccccc3)c2)S1	-2.58
C1CCCC(N2CCOCC2)CCC1	3.19
CC(=O)NS(=O)(=O)c1ccc(NC(=O)c2cccc3ccccc23)cc1	-3.26
Cc1ccc(NC(=O)c2ccc(C(F)(F)F)cc2)cc1O	2.5
Cc1[nH]c2ccccc2c1CN1CCN(c2ccccn2)CC1	15
Clc1nc(N2CCOCC2)nc(N2CCSCC2)n1	-1.85
COc1ccccc1CNC(=O)c1cccc(C(=O)NCc2ccccc2OC)c1	-14.6
CC(=O)c1nn(-c2ccc(Br)cc2)cc1C(=O)c1ccccc1	3.21
Cc1sc(NC(=O)C2C3C=CC(C3)C2C(=O)O)c(C(N)=O)c1-c1ccc(C(C)C)cc1 (centres unmarked)	1.39
COc1ccc(N(CN2C(=O)c3ccccc3C2=O)C(=O)C(F)(F)F)cc1	-2.8
CN(Cc1ccc(Cl)cc1)S(=O)(=O)c1nnc(NC(=O)C(C)(C)C)s1	-1.59
CCOc1ccc(CCNC(=O)CCc2nnc3ccc(N4CCOCC4)nn23)cc1OCC	-5.37
CC(=O)c1sc(NCCOc2ccc(C)cc2)nc1C	-3.96
CC1CCCC(N2CCN(c3cccc(Cl)c3)CC2)C1 (centres unmarked)	-3.6
CC(=O)C1=C(N)OC(C)=C(C#N)C1c1ccc[n+](C)c1 (centres unmarked)	-1.38
COc1ccc(-c2cc(C)no2)cc1S(=O)(=O)NCC(C)c1ccccc1 (centres unmarked)	-11.6
N#CC1=C(N)Oc2cc(O)ccc2C1c1ccc2c(c1)OCO2 (centres unmarked)	-5.28
Oc1cccnc1NC(c1ccc(Cl)cc1)c1ccc2cccnc2c1O (centres unmarked)	-11.3
COc1ccccc1N1CCN(Cc2c(C)[nH]c3ccccc23)CC1	-6.47
C=CCNC(=O)c1c(NC(=O)c2cccs2)sc2c1CCCC2	-5.23
Cc1ccc2nc(-c3ccc(NC(=O)c4ccc(C)c([N+](=O)[O-])c4)cc3)sc2c1	-0.546

Compound	% Inhibition @ 10 uM [%]
CCc1cccc(C)c1NC(=O)c1c(OC)cccc1OC	5.04
Fc1ccccc1N1CCN(Cc2ccc(Br)o2)CC1	-2.7
CCCCSc1nc2c(c(=O)[nH]c(=O)n2C)n1Cc1cccc(C)c1	-2.91
O=C(c1cn(Cc2nc(-c3cccs3)no2)c2ccccc12)C(F)(F)F	-1.72
O=C(NCCCN1CCOCC1)c1ccc(CS(=O)(=O)c2cccc(C(F)(F)F)c2)o1	-1.28
CC1=C(C(=O)NCCN(C)C2CCCCC2)C2(CCCCC2)OC1=O	4.65
COC(=O)c1ccc(CO/N=C(\N)c2nonc2N)cc1	1.03
COc1cccc(CSc2nncn3c2cc2oc(C)cc23)c1	0.0525
c1ccc(N2CCN(Cc3cccc4ccccc34)CC2)cc1	-0.192
Cc1ccccc1C(=O)O/N=C(\N)Cc1cccs1	2.09
COC(=O)c1cc(C)nc2c1c(C)nn2-c1cccc(F)c1	3.36
CC(C)(C)NC(=O)CS(=O)(=O)c1ccc2ccccc2c1	4.61
O=C(NCCCN1CCOCC1)c1cc(-c2ccc(Cl)s2)nc2ccccc12	-2.8
CCOc1ccc(C(=O)c2cnc3ccc(C)cc3c2N2CCN(CC)CC2)cc1	-1.38
c1cnc(Nc2nc(-c3cccnc3)cs2)nc1	4.96
CC(=O)N[C@H]1[C@H](Oc2ccccc2)O[C@@H]2COC(c3ccccc3)O[C@H]2[C@@H]1O (some centres unmarked)	-0.0235
Cc1ccsc1CCNC(=O)c1cc(-c2ccc(Cl)cc2)[nH]n1	-2
CCOC(=O)C1=C(C)N(CC(C)C)C(=O)/C1=C\c1ccc(OC)cc1	-7.18
COc1ccc(OC)c(C2CC(=O)Nc3c2c(C)nn3-c2nc(C)cc(C)n2)c1 (centres unmarked)	2.25
CC(C)NCC(O)Cn1c2ccc(Br)cc2c2cc(Br)ccc21 (centres unmarked)	-0.48
Cc1nn(CC(=O)NC2CCCc3ccccc32)c(=O)c2cc3cc(F)ccc3n12 (centres unmarked)	3.29
CCOc1ccccc1/C=C(\C#N)c1nc(-c2ccc(Cl)cc2)cs1	7.24
Cc1cccn2c(=O)c3cc(S(=O)(=O)c4ccccc4)c(=N)n(Cc4ccccc4)c3nc12	29.6
COc1cccc(NC(=O)C2CCCCC2C(=O)O)c1 (centres unmarked)	1.96
NC(=O)c1c(NC(=O)c2ccc(Cl)cc2Cl)sc2c1CCCC2	-5.31
CC(O)CN(Cc1ccccc1Br)CC(C)O (centres unmarked)	0.0792
